Measured values published in the supplement of paper PMC10600219.
Where a name gives a salt, the structure may show the parent alone. Over roughly 2,800 compounds, “cell viability relative to vehicle” has its median near 1.1; the lowest 2% begin near 0.19. The list shows a part of the results.

Tested on: NCI-H2228 parental
Experiment: cell viability relative to vehicle (fraction of vehicle); NCI-H2228 is an ALK-positive lung cancer line and DTP means drug-tolerant persister; higher = less growth inhibition
Settings: 100 nM; treatment time 6 days
Summary of the method: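 NCI-H2228 parental cells and drug-tolerant persister cells were plated in 384-well plates; the persisters had been generated with 1000 nM of a targeted drug over 13 days. One day later, the 3114-agent TargetMol anti-cancer compound library was added at 100 nM, with DMSO serving as vehicle. ATP was measured 6 days after that using the CellTiter-Glo 3D Cell Viability Assay. Values are cell viability expressed relative to vehicle-treated cells.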

SMILES	cell viability
Oc1ccc(-c2nc(-c3ccc(F)cc3)c(-c3ccncc3)[nH]2)cc1	1.19
O=C(NC[C@H](O)CO)c1ccncc1Nc1ccc(I)cc1F [Pimasertib]	0.86
O=C(O)c1ccc2cc(-c3ccc(O)c(C45CC6CC(CC(C6)C4)C5)c3)ccc2c1	0.292
CC1(C)S[C@@H]2[C@H](NC(=O)[C@H](N)c3ccccc3)C(=O)N2[C@H]1C(=O)O [Ampicillin sodium]	1.11
C=C[C@H]1CN2CC[C@H]1C[C@H]2[C@H](O)c1ccnc2ccc(OC)cc12 [Quinine]	1.09
O=C(O)c1cc(=O)[nH]c(=O)[nH]1 [Orotic acid]	1
O=c1n(CCCN2CCN(c3cccc(Cl)c3)CC2)nc2ccccn12 [Trazodone hydrochloride]	1.05
CC(=O)NCCCCCC(=O)O [Acexamic Acid]	1.08
Cc1ccccc1C(C(=O)NC1CCCCC1)N(C(=O)Cn1ccnc1C)c1cccc(F)c1 (stereo unspecified)	1.26
O=C(CCNNC(=O)c1ccncc1)NCc1ccccc1 [Nialamide]	1.37
Cc1cnc(-c2ccccc2C(C)C)nc1NCc1ccc(-n2ccnn2)cc1	1
Nc1ccc(-c2ccc3ncc4ccc(=O)n(-c5cccc(C(F)(F)F)c5)c4c3c2)cn1 [Torin 2]	0.218
Cc1ccccc1N1CCN(CCc2nnc3n2CCCC3)CC1 [Dapiprazole Hydrochloride]	1.08
CSc1nc2cc(Cl)c(Oc3cccc(Cl)c3Cl)cc2[nH]1 [Triclabendazole]	1.19
CCCCCCCCCCCCCCCCn1cc[n+](Cc2ccccc2)c1C	0.938
O=C1[C@@H]2[C@H]3CC[C@H](C3)[C@@H]2C(=O)N1C[C@@H]1CCCC[C@H]1CN1CCN(c2nsc3ccccc23)CC1 [Lurasidone hydrochloride]	0.925
Cn1cnc2c(F)c(Nc3ccc(Br)cc3F)c(C(=O)NOCCO)cc21 [Binimetinib]	0.83
CC[C@H](CC#N)OC(=O)N[C@@H](C)c1cccc(NC(=O)Nc2ccc(-c3cnco3)c(OC)c2)c1	0.498
Nc1ccc(-c2cnc(N)c(-c3ccc(Cl)cc3)c2)cn1	1.1
COc1cc2nc(N3CCCC3)nc(NCCCCCN3CCCC3)c2cc1OC	1.16
CC(=O)O[C@H]1C(=O)[C@@]2(C)[C@H]([C@H](OC(=O)c3ccccc3)[C@]3(O)C[C@H](OC(=O)[C@H](O)[C@@H](NC(=O)c4ccccc4)c4ccccc4)C(C)=C1C3(C)C)[C@]1(OC(C)=O)CO[C@@H]1C[C@@H]2O [Paclitaxel]	0.128
CN1CCC(Nc2nc(Nc3ccc(Oc4ccccc4)cc3)c3c(=O)[nH]cc(Br)c3n2)CC1	1.06
COc1cccc2c1C(=O)c1c(O)c3c(c(O)c1C2=O)C[C@@](O)(C(=O)CO)C[C@@H]3O[C@H]1C[C@H](N)[C@@H](O)[C@H](C)O1 [Epirubicin hydrochloride]	0.246

SMILES	cell viability
CC(=O)O/N=C1/C(c2c(O)[nH]c3cc(Br)ccc23)=Nc2ccccc21 [BIO-acetoxime]	0.994
C=C(C)[C@@H]1CC[C@]2(CO)CC[C@]3(C)[C@H](CC[C@@H]4[C@@]5(C)CC[C@H](O)C(C)(C)[C@@H]5CC[C@]43C)[C@@H]12 [Betulin]	1.04
COC(=O)C[C@](O)(CCCC(C)(C)O)C(=O)O[C@@H]1C(OC)=C[C@]23CCCN2CCc2cc4c(cc2[C@H]13)OCO4 [Homoharringtonine]	0.162
C[C@@H](O)[C@H]1C(=O)N2C(C(=O)O)=C(S[C@@H]3CN[C@H](C(=O)Nc4cccc(C(=O)O)c4)C3)[C@H](C)[C@H]12 [Ertapenem sodium]	1.06
Nc1ccc(S(=O)(=O)NC(=O)c2ccccc2)cc1 [Sulfabenzamide]	0.908
CC(=O)c1ccc(NC2=C(Cl)C(=O)c3ccccc3C2=O)cc1	1.08
CC(C)c1nc(N(C)S(C)(=O)=O)nc(-c2ccc(F)cc2)c1/C=C/[C@@H](O)C[C@@H](O)CC(=O)O [Rosuvastatin]	1.21
O=C(COc1cccc2c(=O)[nH]ccc12)c1ccccc1	1.14
CC(C)=CCC[C@](C)(O)[C@H]1CC[C@]2(C)[C@@H]1[C@H](O)C[C@@H]1[C@@]3(C)CC[C@H](O[C@@H]4O[C@H](CO)[C@@H](O)[C@H](O)[C@H]4O[C@@H]4O[C@H](CO)[C@@H](O)[C@H](O)[C@H]4O)C(C)(C)[C@@H]3CC[C@]12C [Ginsenoside Rg3]	1.12
CCNC(=O)[C@H]1O[C@@H](n2cnc3c(N)nc(NCCc4ccc(CCC(=O)O)cc4)nc32)[C@H](O)[C@@H]1O	1.15
Cn1cc(-c2cnn3c(N)c(Br)c([C@H]4CCCNC4)nc23)cn1	0.968
CCN(CC)CCCC(C)Nc1ccnc2cc(Cl)ccc12 (stereo unspecified) [Chloroquine diphosphate]	1.09
CC1=C(C(=O)Nc2ccc3[nH]ncc3c2)C(c2ccc(F)c(C(=O)NCc3ccccn3)c2)NC(=O)N1 (stereo unspecified)	1.04
CC(C)OC(=O)C(C(=O)OC(C)C)=C1SC=CS1 [Malotilate]	0.95
CC(C)NC(=O)COc1cccc(-c2nc(Nc3ccc4[nH]ncc4c3)c3ccccc3n2)c1	1.11
C[C@@H](O)[C@H]1C(=O)N2C(C(=O)O)=C(SCCNC=N)C[C@H]12 [Imipenem]	1.04
CCOc1cc(N2CCC(O)CC2)ccc1Nc1ncc2c(n1)N(C1CCCC1)CCC(=O)N2C	1.15
C=C(C)[C@@H]1CC[C@]2(C(=O)O)CC[C@]3(C)[C@H](CC[C@@H]4[C@@]5(C)CC[C@H](O)C(C)(C)[C@@H]5CC[C@]43C)[C@@H]12 [Betulinic acid]	1.02
O=c1ccc2cc3ccoc3cc2o1 [Psoralen]	1.12
Oc1ccc2c(c1)OC[C@]1(O)Cc3cc(O)c(O)cc3[C@H]21 [Brazilin]	0.94
CCS(=O)(=O)Nc1ccc(Oc2ccc(F)cc2F)c(-c2cn(C)c(=O)c3[nH]ccc23)c1 [Mivebresib]	0.763
CCCCCN(C)CCC(O)(P(=O)(O)O)P(=O)(O)O [Ibandronate sodium]	1.04
O=C(COc1c(Cl)cc(Cl)cc1Cl)N/N=C/c1ccc[nH]1	1.08
